This is an account of results in ChEMBL document CHEMBL4888484, “Replenishing the malaria drug discovery pipeline: Screening and hit evaluation of the MMV Hit Generation Library 1 (HGL1) against asexual blood stage Plasmodium falciparum ,using a nano luciferase reporter read-out” (2022).

Structures are written as SMILES. Out of some 150,000 compounds screened, about 540 (0.36%) showed an effect of 50% or more. This is one part of the list.

For this test, the system named is Plasmodium falciparum. As to the kind of experiment: Primary screen in NF54 nanoGlo assay, in single point, at 2uM, 72h; a lower Z score goes with more inhibition. Type of test: functional, Erythrocyte. As to conditions: timepoint 72 hour.
As for `CCC(CC)NC(=O)[C@@H]1CCCCC(=O)N1Cc1cccc(OC)c1`, the “% Inhibition” value came to 5% and the Z score is reported as -0.59.
In the same order, the values of `CC(C)(C)C(=O)NCCCN1CCOCC1` are 2% and -0.29.
Take `CC[C@H](OC1CCCCC1)c1nc(-c2cc(O)ncn2)no1`: the “% Inhibition” value turned out to be 0% and the Z score is recorded as 0.03.
Take `CN1C(=O)c2ccc(NC(=O)Nc3ccccc3)cc2C1=O`: the “% Inhibition” value was -12% and the Z score amounted to 1.4.
For `Cc1cc(C(=O)N2CCOC[C@H](Oc3ccc(C(F)(F)F)cc3)C2)c(C)o1`, the “% Inhibition” value is 11% and the Z score is recorded as -1.24.
The like results for `COc1cccc(C(=O)N2CCc3c(c(-c4nncn4C(C)C)nn3C)C2)c1` were, in that order, 7% and -0.92.
In the same order, the values of `CO[C@@H](C)CCC(=O)Nc1ccnc(C(C)(C)C)n1` are -10% and 1.39.
The like results for `CCCCCN/C(=N\C(=O)c1ccccc1Cl)OCC(C)C` were, in that order, 3% and -0.48.
As for `O=S(=O)(Cc1ccccc1F)N1CCCc2ccccc21`, the “% Inhibition” value is -8% and the Z score is listed as 1.59.
In the same order, the values of `Cc1nc(NC(=O)[C@H](C)NCc2nnc3n2CCCC3)sc1C` are -18% and 2.74.
As for `Cc1noc(C)c1S(=O)(=O)NCc1ccsc1`, the “% Inhibition” value is recorded as -9% and the Z score came to 1.18.
Turning to `Cc1cc(-c2c(-c3ccccc3)ncn2C[C@@H](c2ccc(C)o2)N(C)C)[nH]n1`, the “% Inhibition” value was -3% and the Z score is on record as 0.35.
Take `Cc1nc(NC(=O)N2CCOC(C)(C)[C@@H]2C)ccc1Br`: the “% Inhibition” value was found to be 12% and the Z score is listed as -2.22.
The like results for `COc1ccncc1CNC(=O)N1Cc2ccccc2OC[C@@H]1C` were, in that order, 27% and -3.01.
The like results for `O=C1C(=O)N(CCS(=O)(=O)c2ccccc2)c2ccccc21` were, in that order, -6% and 0.81.
In the same order, the values of `CCC(=O)N(C)c1ccccc1-c1nc(-c2ccc(Br)o2)no1` are 10% and -1.27.
For `CC(CNC1CCCCC1S(C)(=O)=O)c1ccsc1` (stereo not drawn), the “% Inhibition” value is -3% and the Z score stood at 0.42.
With `CCOc1cc(N[C@H]2CCn3ccnc32)ccc1OC`, the “% Inhibition” value was -12% and the Z score worked out at 2.28.
For `CCOc1ccc([C@H](C)NC(=O)CCn2cnc3c(cnn3C)c2=O)cc1OCC`, the “% Inhibition” value is recorded as -16% and the Z score turned out to be 1.63.
The like results for `Cc1noc(C)c1S(=O)(=O)Nc1ncccc1-c1ccccc1` were, in that order, 4% and -0.45.
In the same order, the values of `C=CC[C@H](CC)NC(=O)NCC(=O)Nc1ccccc1` are 10% and -1.8.
In the same order, the values of `Cc1ccc(C(=O)N2CCC3(CCc4nn(Cc5ccccc5)c(=O)n4CC3)CC2)s1` are -7% and 0.82.
Take `CC(C)n1ncnc1-c1ccc(C(=O)NCCc2nccs2)cc1`: the “% Inhibition” value is listed as -4% and the Z score turned out to be 0.63.
`COCCNC(=O)c1cc2cc(NC(=O)c3ccc(C)c(C)c3)ccc2n1Cc1ccc(F)cc1`: the “% Inhibition” value is reported as 0% and the Z score was determined as 0.09.
`CC(C)Cn1ncnc1CN1CCc2ccccc2[C@@H]1CO`: the “% Inhibition” value is 6% and the Z score is reported as -0.87.
For `O=C(O)[C@H]1CC(=O)N(Cc2scnc2-c2ccccc2)C1`, the “% Inhibition” value was determined as 1% and the Z score was -0.18.
With `O=C(CN(CC(=O)N1CCOCC1)S(=O)(=O)c1ccc(Cl)cc1)N1CCOCC1`, the “% Inhibition” value turned out to be 2% and the Z score is reported as -0.3.
In the same order, the values of `Cn1nc(-c2cccnc2)cc1C(=O)NC1(C(F)(F)F)CCCCC1` are -20% and 2.49.
The like results for `Cc1ccc(Oc2nc(C)nc3c2CCCC3)cn1` were, in that order, -4% and 0.68.
Take `CCc1ccc(CCNC(=O)N(C)Cc2nc(C)c[nH]2)cc1`: the “% Inhibition” value was found to be 5% and the Z score is recorded as -1.01.
In the same order, the values of `O=C(COc1ccc(Cl)cc1)NCc1cn(-c2cccs2)nn1` are 14% and -1.82.
In the same order, the values of `Cc1cc(-c2nc(C3CC3)nn2-c2ccccn2)on1` are -19% and 2.2.
In the same order, the values of `COc1cc([C@@H]2c3c(-c4ccc(F)cc4)n[nH]c3C(=O)N2CCc2c[nH]c3ccccc23)ccc1O` are -18% and 2.68.
Take `Cc1nn(-c2ccccc2)c(=O)n1CC(=O)NCCCn1ccnc1`: the “% Inhibition” value is recorded as -2% and the Z score is 0.25.
As to `CC(C)c1noc([C@@H]2CCCN2Cc2ccccn2)n1`, the “% Inhibition” value is recorded as -6% and the Z score was found to be 0.67.
Regarding `COC[C@H](C)NC(=O)C(=O)Nc1ccc(OC)c(Cl)c1`, the “% Inhibition” value was determined as 1% and the Z score is recorded as -0.16.
The like results for `CC[C@H](OC)C(=O)N1CCC(c2ccc(F)c(F)c2)CC1` were, in that order, -11% and 1.06.
As for `COc1ccc(-c2cnc3ncnn3c2N2CCCCCCCC2)cc1`, the “% Inhibition” value is 4% and the Z score is on record as -0.62.
The like results for `CC(C)NC(=O)[C@@H]1C[C@@H](NCc2cc(F)ccc2F)CN1Cc1cccc(Cl)c1` were, in that order, 6% and -0.85.
Turning to `Cc1ccc(Cc2nc(N3CCN(C(=O)c4ccccc4F)CC3)c3c(C)nn(-c4ccccc4)c3n2)cc1`, the “% Inhibition” value was -1% and the Z score turned out to be 0.23.
Turning to `Cn1ccnc1C1CC(NS(=O)(=O)c2cccc(Cl)c2O)CCO1` (stereo not drawn), the “% Inhibition” value is -3% and the Z score was 0.39.
As for `CCOc1ccc(NC(=O)Cn2c3c(c(=O)n2-c2ccccc2)Cc2ccc(OC)cc2O3)cc1`, the “% Inhibition” value is -6% and the Z score was 0.66.
The like results for `CC(C)C(=O)NCCCNC(=O)NCC1(C)CCC1` were, in that order, -5% and 0.97.
The like results for `COc1cccc(OC)c1CN1CC[C@@]2(CCCN(C3CCCCC3)C2=O)C1` were, in that order, -9% and 1.21.
As for `CN1CCCCC[C@H]1C(=O)N1CCc2[nH]c(-c3ccc(F)cc3F)nc2C1`, the “% Inhibition” value is listed as -7% and the Z score is 1.28.
Consider `Cc1c(C(=O)NCc2ccc(F)cc2)sc2ncnc(N(C)c3ccccc3)c12`, for which the “% Inhibition” value is -9% and the Z score is listed as 1.39.
As for `Cc1nc(C2(NC[C@@H](O)Cc3ccccc3)CCC2)no1`, the “% Inhibition” value was -14% and the Z score was 1.41.
The like results for `COc1ccc(C(=O)N(C)CCc2noc(-c3cc4ccc(OC)cc4[nH]3)n2)c(C)c1` were, in that order, -10% and 1.91.
The like results for `Cc1ccc(S(=O)(=O)Nc2cc(C(=O)O)cnc2N2CCC[C@H](C)C2)cc1C` were, in that order, -3% and 0.35.
The like results for `Cc1cc(C)n([C@@H](C)CNC(=O)CCc2csc(N)n2)n1` were, in that order, -9% and 1.
On to `CN(Cc1nc2ccccc2c(=O)[nH]1)C(=O)c1ccc(N2CCCC2=O)cc1`, for which the “% Inhibition” value was determined as 38% and the Z score was -4.92.
As to `C[C@@H]1c2ccccc2CCN1C(=O)c1ccccc1F`, the “% Inhibition” value is -18% and the Z score worked out at 1.73.
The like results for `CC(=O)c1cn(CC(=O)N2CCNC(=O)C2)c2ccccc12` were, in that order, 38% and -4.31.
Regarding `CCN(CCC(=O)N(CC#N)CC#N)[C@@H](C)c1ccc(F)cc1`, the “% Inhibition” value turned out to be 4% and the Z score is -0.53.

One may read the % Inhibition as the relative decrease from the control value, in per cent.
